# Laboratory results reported in PubChem BioAssay AID488969 (Vanderbilt High Throughput Screening Facility, 2010).
# Over roughly 110,000 compounds, “z-score” has its median near -0.1; the highest 2% begin near 2. The list shows a part of the results. Active and inactive are the calls of the source.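 How the source made its calls: active means z-score in the third read window above 3 or below -3; inactive means the rest.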 Non-standard residues stand in square brackets, D forms with d. Residues, ends and D or L forms follow the SMILES beside them. ξ: configuration not given here. *: point of attachment. Boc = CC(C)(C)OC(=O)*; ξP = O=C(O)C1CCCN1
# Biological target: Metabotropic glutamate receptor 8 (Rattus norvegicus) (UniProt P70579)
# UniProt P70579, sequence (P70579 whole entry, looked up): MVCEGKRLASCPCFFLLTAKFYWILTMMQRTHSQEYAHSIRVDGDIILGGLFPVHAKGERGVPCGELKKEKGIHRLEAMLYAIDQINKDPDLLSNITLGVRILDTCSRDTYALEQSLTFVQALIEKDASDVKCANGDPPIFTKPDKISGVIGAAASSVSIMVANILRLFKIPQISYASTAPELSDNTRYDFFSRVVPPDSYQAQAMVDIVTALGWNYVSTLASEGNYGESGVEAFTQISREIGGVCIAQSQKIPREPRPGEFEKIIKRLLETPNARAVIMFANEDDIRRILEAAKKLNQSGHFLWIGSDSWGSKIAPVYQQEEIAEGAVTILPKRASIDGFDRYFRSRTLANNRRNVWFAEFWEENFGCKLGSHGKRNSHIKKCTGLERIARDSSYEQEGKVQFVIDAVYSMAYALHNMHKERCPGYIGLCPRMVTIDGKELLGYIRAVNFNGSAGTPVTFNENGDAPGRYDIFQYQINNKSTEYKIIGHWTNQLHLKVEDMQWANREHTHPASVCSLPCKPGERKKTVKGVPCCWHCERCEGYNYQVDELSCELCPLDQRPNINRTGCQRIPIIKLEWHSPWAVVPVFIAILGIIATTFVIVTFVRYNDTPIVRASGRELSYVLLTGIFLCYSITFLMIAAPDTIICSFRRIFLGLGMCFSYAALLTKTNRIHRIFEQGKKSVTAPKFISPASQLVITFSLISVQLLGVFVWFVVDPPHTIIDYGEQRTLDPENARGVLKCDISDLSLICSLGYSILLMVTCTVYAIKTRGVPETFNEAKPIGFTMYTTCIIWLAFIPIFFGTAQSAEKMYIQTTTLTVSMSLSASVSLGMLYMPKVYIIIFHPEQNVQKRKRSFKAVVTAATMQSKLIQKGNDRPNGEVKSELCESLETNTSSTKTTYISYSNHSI
# Experiment: rat mGluR8 modulators via GIRK flux, primary screen, cell-based, thallium flux, HTS (AID 488969)
# Conditions: HEK293 rat mGluR8, GIRK (G protein-gated inwardly rectifying potassium channel) thallium flux, FluoZin2; at 10 µM; stronger effect = higher value; submaximal glutamate (EC20) added with thallium
row,Structure (SMILES),z-score
1,CCn1c(=O)n(CC(=O)Nc2cc(OC)c(OC)c(OC)c2)c(=O)c2ccccc21,-0.173
2,O=C(NCc1ccco1)c1cc2nc(-c3ccc4c(c3)OCO4)cc(C(F)(F)F)n2n1,-0.645
3,COc1ccc(-c2nc3ccccc3c(=O)n2NC(=S)N(C)C)cc1,-0.0299
4,COc1ccc(-n2c(SCC(N)=O)nc3nc4c(cc3c2=O)COC(C)(C)C4)cc1,0.00439
5,O=C1CCCC(=O)C1=C1SCCCS1,-0.18
6,O=C(CNS(=O)(=O)c1ccc(Br)s1)NCC1COc2ccccc2O1 (configuration not stated),0.0278
7,C=CCNc1nc(Nc2ccc(OC)cc2OC)nc(OCC)n1,-0.877
8,Cc1ccccc1C(=O)Nc1nc2n(n1)C(c1ccccc1)CC(=O)N2 (configuration not stated),-0.38
9,COc1ccc(NC(=O)/C=C/c2cccc(F)c2)cn1,-0.529
10,O=c1c2cnn(-c3ccccc3)c2nc(-c2cccs2)n1-c1ccc(Br)cc1,-0.945
11,Cc1ccc(-c2nc3ccccc3s2)cc1NC(=S)NC(=O)c1cccc2ccccc12,0.183
12,O=C(Cn1nnc(-c2ccc(CN3CCOCC3)cc2)n1)N1CCCc2ccccc21,1.82
13,COc1cc(NC(=O)CSc2nnc(-c3ccncc3)n2C2CCCCC2)ccc1NC(=O)c1ccco1,-0.847
14,Cc1nnc(SCC(=O)N2CCc3ccccc3C2)s1,0.0143
15,Cc1ccc(O)c(C(=O)c2cnn(-c3ccccc3)c2)c1,-0.29
16,O=C(Nc1ccn(Cc2ccccc2F)n1)c1ccc(COc2ccc(Cl)cc2Cl)o1,-0.281
17,CCCCCC(=O)Nc1cc2[nH]c(=O)cc(COC)c2cc1C,-0.00991
18,CC(C)C(=O)N(c1ccc2oc(=O)sc2c1)S(=O)(=O)c1cccs1,-0.944
19,O=C(NC1CCCc2ccccc21)C1CCN(S(=O)(=O)c2cnc[nH]2)CC1 (configuration not stated),-0.509
20,O=[N+]([O-])c1cccc(NC(=S)NCCc2ccccc2)c1,1.98
21,O=C(c1ccc(C(=O)N2CCOCC2)nc1)N1CCOCC1,-0.037
22,CC(C)Nc1cc(C(F)(F)F)nc(-c2ccccn2)n1,0.00249

row,Structure (SMILES),z-score
1,CC1(C)NC(=O)N(CC(O)COc2cc3ccccc3cc2C(=O)N2CCCCC2)C1=O (configuration not stated),-0.708
2,CCOC(=O)Nc1ccc(S(=O)(=O)N(C)C(C)C)cc1,-0.113
3,CCNc1nc(NC(C)C)nc(OCC)n1,-0.186
4,COCCN(C(=O)Cn1nnc2ccccc21)C(C(=O)NC1CCCC1)c1cccc(OC)c1OC (configuration not stated),0.143
5,O=C(NCCc1csc(-c2ccccc2)n1)c1ccc(Br)o1,-0.551
6,Clc1ccccc1-c1nn2c(-c3ccncc3)nnc2s1,-0.211
7,CCOc1cc(C(=O)Nc2cc(C)ccc2C)ccc1OCC(=O)N1CCCCC1,0.207
8,Cc1ccc(C(=O)N/C(=C\c2ccco2)C(=O)NCCCn2ccnc2)cc1,-0.09
9,CCOC(=O)c1ccc(NC(=O)CCn2nnc3ccccc32)cc1,0.109
10,Cc1cc(N2CCCCC2)nc2ccc(NC(=O)c3ccc(Br)o3)cc12,-1.58
11,COc1ccc(NC(=S)NCCc2c[nH]c3ccccc23)cc1,-0.346
12,CCOc1cccc(-c2cc(C(=O)N/N=C/c3ccc(OC)c(CN4CCOCC4)c3)c3ccccc3n2)c1,-0.136
13,COc1ccc(/C=C/C(=O)Nc2cc(C(F)(F)F)ccc2Cl)cc1OC,-0.241
14,C=CCn1c(CSc2nc3ccccc3s2)nnc1SCC(=O)NCc1ccccc1,-0.287
15,Cc1ccc(S(=O)(=O)N2CCN(CC(=O)N/N=C/c3ccc(Br)s3)CC2)cc1,-0.366
16,O=C(c1n[nH]c(=O)c2ccccc12)N1CCN(C2c3ccccc3-c3ccccc32)CC1,-0.135
17,CCCCOC(=O)Nc1ccc(N(C)C)cc1,-0.00985
18,Cc1ccc2nc(/C(C#N)=C\c3ccc(Oc4ccc([N+](=O)[O-])cn4)cc3)[nH]c2c1,-0.462
19,CCOc1ccc(/C(=N\O)C(C)NO)cc1 (configuration not stated),-0.811
20,Cc1[nH]c(C(=O)N/N=C/c2ccc(C(=O)O)cc2)c(C)c1C(=O)N/N=C/c1ccc(C(=O)O)cc1,-0.0407
21,COC(=O)c1ccc(CSc2nnc(NCc3ccccc3)s2)o1,-1.04
22,CN(c1ccccc1)c1nc(N2CCCC2)nc(-n2ccnc2)n1,-0.407

row,Structure (SMILES),z-score
1,Cc1ccccc1/C(N)=N/OC(=O)/C=C/c1ccccc1,1.6
2,O=C(NC(=S)Nc1cc(-c2nc3ccccc3[nH]2)ccc1Cl)c1ccc2c(c1)OCO2,-0.223
3,FC(F)Sc1ccc(NC(=S)NC2CCC(NC(=S)Nc3ccc(SC(F)F)cc3)CC2)cc1 (configuration not stated),-0.2
4,CC(C)C(=O)Nc1ccc2c(c1)C(=O)N(CCC(=O)O)C2=O,0.16
5,COc1ccccc1CN=Cc1[nH]c2ccc(Br)c(Cl)c2c1O,-0.742
6,COc1ccc(C(CC(=O)Nc2ccccc2OC)n2cccc2)cc1 (configuration not stated),-0.113
7,Cn1nc(-c2ccc(N3CCOCC3)c(NS(=O)(=O)c3ccccc3)c2)c2ccccc2c1=O,-0.135
8,Cc1ccc(NC(=O)C2CCCN2C(=O)NC2CCCCC2)c(C)c1 (configuration not stated),0.897
9,CCOP(=O)(O)c1ccccc1OCCCCCOc1ccccc1P(=O)(O)OCC,-0.285
10,O=C(NC12CC3CC(CC(C3)C1)C2)N1CCN(C(=O)C2CCCO2)CC1 (configuration not stated),0.11
11,Cc1ccccc1NC(=S)/C(=C(\[O-])c1ccc(C)c([N+](=O)[O-])c1)[n+]1ccccc1,0.013
12,O=C(CSc1nnc(-c2ccncc2)n1-c1ccc(Cl)cc1)NCc1cccs1,-0.067
13,CCSc1nnc(NC(=O)c2csc(C)c2)s1,-0.162
14,COc1ccc(OC)c(NC(=O)C(Sc2ccccc2)c2ccccc2)c1 (configuration not stated),0.629
15,CC(NC(=O)c1cccc(N2CCCC2=O)c1)c1ccc2c(c1)OCCO2 (configuration not stated),-0.699
16,COc1ccc(OCC(O)CN2CCN(Cc3ccc4c(c3)OCO4)CC2)cc1 (configuration not stated),-0.0487
17,Cc1oc2nc(SCC(=O)NCCCO)nc(N)c2c1C,-0.517
18,O=C(Nc1ncnc2c1ncn2C1OC(COC(=O)c2ccccc2)C(F)C1O)c1ccccc1 (configuration not stated),-0.732
19,CCC(CC)C(=O)NCCc1ccc(F)cc1,-0.0973
20,Cc1ccc(C)c(N2CCN(c3cnn(-c4nc5ccccc5s4)c(=O)c3Cl)CC2)c1,-0.242
21,Cn1c(=O)c2c(nc(CN3CCN(CCO)CC3)n2Cc2cccc3ccccc23)n(C)c1=O,0.179
22,CC(=O)c1ccc(OCc2ccc(Oc3c(Cl)cccc3[N+](=O)[O-])cc2)cc1,-0.331

row,Structure (SMILES),z-score
1,Cc1cc(=O)[nH]c(SCC(=O)N2CCC(C(N)=O)CC2)n1,0.0875
2,CCn1cnc2sc(C)c(C)c2c1=O,-0.0555
3,CCc1ccc(CCC(=O)Nc2sc3c(c2C#N)CCCC3)o1,0.975
4,COc1ccc2c(C(=O)CN3CC(C)OC(C)C3)c[nH]c2c1 (configuration not stated),-0.0527
5,NCCc1nnc(SCc2ccc(F)cc2)o1,-0.111
6,c1ccc2c(NC3CCCC3)nnc(NC3CCCC3)c2c1,active: 3.18
7,CCOc1cccc2cc(C(=O)N3CCc4ccccc43)c(=O)oc12,0.17
8,CCc1ccccc1N1C(=O)C2CC(C)=C(C)CC2C1=O (configuration not stated),0.39
9,COc1ccccc1-c1nc2ccccc2nc1-c1ccccc1OC,-0.156
10,CC1(C)Cc2ccccc2-c2nnc(SCc3ccccc3)n21,-0.0898
11,CCOC(=O)c1[nH]c2ccc(F)cc2c1NC(=O)CN1CCN(C/C=C/c2ccccc2)CC1,-0.0288
12,O=C(COC(=O)c1ccc2c(c1)C(=O)N(c1cccc3ncccc13)C2=O)c1ccc(Cl)cc1,-0.619
13,CCOC(=O)C1CCCN(C(=O)c2cc3ncc(Br)cn3n2)C1 (configuration not stated),0.117
14,CC(C)Cn1c(SCC(=O)NCc2ccc(Cl)cc2)nnc1-c1cccc(S(=O)(=O)N2CCOCC2)c1,-0.0221
15,O=C(O)c1ccc(C2CCCCC2)cn1,-0.374
16,N#Cc1nc(Cc2cccc3ccccc23)oc1NCCN1CCOCC1,0.571
17,CSc1ncccc1C(=O)OCc1ccc(COC(=O)c2cccnc2SC)cc1,-0.347
18,CCOc1ccccc1N1CC(C(=O)NCCc2ccc(S(N)(=O)=O)cc2)CC1=O (configuration not stated),0.0844
19,CCCCn1c(N)c(N(CCOC)C(=O)CSc2nc3ccc(C)cc3[nH]2)c(=O)[nH]c1=O,0.298
20,COc1ccccc1C(=O)COC(=O)c1ccccc1OCC(=O)Nc1ccc(SC(F)F)cc1,1.1
21,O=C(N/N=C/c1cn(Cc2ccccc2)c2ccccc12)c1cccnc1,-0.306
22,Cc1ccc(Nc2nc3c([nH]2)c(=O)n(C)c(=O)n3C)cc1,0.461

row,Structure (SMILES),z-score
1,Cc1cc(C)cc(OCC(=O)NNC(=O)c2cc3ccccc3oc2=O)c1,0.267
2,O=C(COC(=O)C12CC3CC(CC(C3)C1)C2)NC12CC3CC(CC(C3)C1)C2,-0.0359
3,CCN(CC)C(=O)CSc1nc2ccc(NC(=O)CSc3nnc(N)s3)cc2s1,-0.276
4,COC(=O)CNC(=O)C1CCCN1C(=O)CNC(=O)OC(C)(C)C (stereo not drawn) (Boc-Gly-[ξP]-Gly-OMe),0.349
5,Cc1ccc(N/N=C2/CCCNC2=O)cc1,0.0566
6,O=C(C/C=N/OCc1c(Cl)cccc1Cl)c1ccc(Cl)cc1,0.24
7,O=C(CCC(=O)N1CCCc2ccccc21)N1CCN(S(=O)(=O)c2ccccc2)CC1,0.123
8,CCn1c(Cn2nnc(-c3ccccc3)n2)nnc1SCC(=O)N1CCOCC1,0.0376
9,CCOC(=O)CSc1nc(C)c2ccc(C)cc2n1,-0.413
10,O=C(NCC1CCCO1)C1CCN(C(=O)c2ccc(Br)cc2)CC1 (configuration not stated),-0.38
11,Cc1cccc(NC(=O)NCCN2C(=O)C3C4C=CC(C4)C3C2=O)c1 (configuration not stated),0.0971
12,Cc1c(NC(=O)C(C)Sc2ccccc2)c(=O)n(-c2ccccc2)n1C (configuration not stated),0.277
13,O=C(C1CCN(c2nnc(-n3cccc3)s2)CC1)N1CCN(c2cccc(C(F)(F)F)c2)CC1,-0.569
14,CC1(C)CC(=O)C=C(Nc2ccc(F)cc2F)C1,-0.519
15,CC(C)Oc1cccc(C(=O)NC(=S)Nc2cccc(C(F)(F)F)c2)c1,0.755
16,CCCC(=O)Nc1cc(C)c(NC(=O)c2ccncc2)cn1,0.502
17,Fc1cccc(Nc2nc3ccccc3n3nnnc23)c1,0.0225
18,Cn1nc(-c2ccccc2)c(C(O)c2ccccc2C(F)(F)F)c1Cl (configuration not stated),-0.268
19,N#C/C(=C\c1c(N(Cc2ccccc2)Cc2ccccc2)nc2ccccn2c1=O)C(N)=O,-1.96
